# Data reported in PubChem BioAssay AID504845 (National Center for Advancing Translational Sciences (NCATS), 2011).
# Out of some 390,000 compounds screened, about 150 (0.038%) were called active. Inconclusive means that the source gave no clear call. Such entries were picked first, then a sample of the others. Calls follow the shape of the dose curve; as a rule, active = well fitted inhibition curve with a large enough effect; inconclusive = small, poorly fitted or top-dose-only effect; inactive = no such curve, though single readings can be large or run the other way. Where the call is inconclusive, the potency comes from a doubtful curve fit.
# Molecular target: Regulator of G-protein signaling 4 (Homo sapiens) (UniProt P49798)
# UniProt P49798, sequence (P49798 whole entry, looked up): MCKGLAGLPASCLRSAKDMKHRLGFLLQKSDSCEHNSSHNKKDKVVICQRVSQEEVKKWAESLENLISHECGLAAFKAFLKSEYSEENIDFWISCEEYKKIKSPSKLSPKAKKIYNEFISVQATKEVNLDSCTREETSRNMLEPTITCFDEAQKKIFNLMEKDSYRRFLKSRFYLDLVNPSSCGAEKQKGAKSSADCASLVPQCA
# Assay: Inhibitors of Regulator of G Protein Signaling (RGS) 4: qHTS; also: nearly all actives have a fitted effect of over 75% in size
# Conditions: Transcreener GDP fluorescence polarization, RGS4-accelerated GTP hydrolysis; series mostly up to 114 µM
# How it was run: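 MLSMR compounds (23 nl, pin-transferred) preincubated 10 min at room temperature with a 500nM (2x) first reagent, then RGS4 at 900nM (2x) plus Transcreener GDP mix added; fluorescence polarization (620/688 nm) read before and after 90 min at 30 °C.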
# Potency is read from the fitted curve at half-maximal effect; tags tell the direction and shape of the fitted curve.
row,Structure (SMILES),Potency
1,CCN(CC)C(=O)CSc1nc2c(sc(=S)n2-c2ccccc2)c(=O)n1-c1ccc(OC)cc1OC,"inconclusive: 31.6 µM [inhibitor, full curve, poor fit]"
2,Clc1ccc(C2Nc3cccc4cccc(c34)N2)c(Cl)c1,"inconclusive: 89.1 µM [inhibitor, partial curve, poor fit]"
3,COc1ccc(OC)c(NC(=O)c2c(NCc3ccc(C)o3)sc3c2CCCCC3)c1,"inconclusive: 70.8 µM [inhibitor, partial curve, poor fit]"
4,CC(C)COc1ccc(C(=O)OCCN2CCOCC2)cc1,"inconclusive: 79.4 µM [inhibitor, single point]"
5,CNC(=O)c1cn(-c2ccc(Cl)cc2)c(=O)c2ccccc12,"inconclusive: 79.4 µM [inhibitor, partial curve, poor fit]"
6,Cc1ccn2c(=O)c(C(=O)NCCc3ccc(S(N)(=O)=O)cc3)c(O)nc2c1,inactive
7,Cc1ccc(S(=O)(=O)/N=C2/NC(=O)/C(=C\c3cc(Br)cc(Br)c3O)S2)cc1,"inconclusive: 79.4 µM [inhibitor, partial curve, poor fit]"
8,O=C(O)C1=C(OCc2ccc(F)c(F)c2)C(=O)NCC1,"inconclusive: 39.8 µM [inhibitor, partial curve, poor fit]"
9,O=C(Cc1c(F)cccc1Cl)Nc1nccs1,inactive
10,O=C(CSc1nc(=O)n(Cc2ccco2)c2c1CCC2)NCc1ccccc1Cl,inactive
11,Nc1nc2cc(S(=O)(=O)N3CCOCC3)ccc2o1,"inconclusive: 10 µM [inhibitor, full curve, poor fit]"
12,O=C(NC(=S)Nc1ccccc1N1CCCC1)c1ccc(F)cc1,"inconclusive: 50.1 µM [inhibitor, partial curve, poor fit]"
13,COc1ccc(Cc2nnc(N/N=C/c3ccc(O)cc3)[nH]c2=O)cc1OC,"inconclusive: 100 µM [inhibitor, single point]"
14,CCOC(=O)c1c(C)[nH]c(C)c1C(=O)CSc1nc2ccccc2c(=O)n1-c1ccc(CC)cc1,inactive
15,COc1ccc(N=C2SC(C(=O)Nc3ccc4c(c3)OCO4)CC(=O)N2C)cc1 (stereo not given),"inconclusive: 89.1 µM [inhibitor, single point]"
16,C/C(Cl)=C/Cn1c(SC(C)C)nc2c1c(=O)[nH]c(=O)n2C,"inconclusive: 17.8 µM [inhibitor, full curve, poor fit]"
17,Cc1ccc(C)c(-c2cc(C(=O)Nc3nccs3)c3ccccc3n2)c1,inactive
18,COc1cc2c(cc1OC)CN(CCC(=O)c1ccc(Br)cc1)CC2,"inconclusive: 31.6 µM [inhibitor, partial curve, poor fit]"
19,Cc1ccc(NC(=O)CN2CCCCCC2)cc1Br,"inconclusive: 89.1 µM [inhibitor, single point]"
20,CSc1ccc(C2C(C#N)=C(N)N(c3ccccc3)C3=C2C(=O)CCC3)cc1 (stereo not given),"inconclusive: 100 µM [inhibitor, single point]"
21,O=C1Nc2ccccc2C12OCC(COc1ccc(Cl)cc1)O2 (stereo not given),"inconclusive: 79.4 µM [inhibitor, partial curve, poor fit]"
22,CN(c1cnn(-c2ccccc2)c(=O)c1Cl)n1cccc1,inactive

row,Structure (SMILES),Potency
1,COc1ccc(/C=N\NC(=O)c2ccc([N+](=O)[O-])c(C)c2)cc1COc1ccccc1C(N)=O,"inconclusive: 17.8 µM [inhibitor, partial curve, poor fit]"
2,CCOC(=O)c1cnc(Nc2nc3ccccc3o2)nc1CSc1ncccn1,"inconclusive: 50.1 µM [inhibitor, partial curve, poor fit]"
3,CNc1c(C(=O)O)ccc2c1C(=O)c1ccccc1C2=O,inactive
4,CCC(=S)/C=C1\Sc2ccccc2N1CCCS(=O)(=O)O,"inconclusive: 79.4 µM [inhibitor, partial curve, poor fit]"
5,CCOC(=O)c1c(NC(=O)c2cccs2)sc(C(=O)N(C)C)c1C,"inconclusive: 79.4 µM [inhibitor, partial curve, poor fit]"
6,COc1ccc(N(CC(=O)Nc2ccc(C(N)=O)cc2)S(=O)(=O)c2ccc(C)c([N+](=O)[O-])c2)cc1,"inconclusive: 79.4 µM [inhibitor, partial curve, poor fit]"
7,Oc1ccc2ccccc2c1CNc1cnc2ccccc2c1,"inconclusive: 28.2 µM [inhibitor, full curve, poor fit]"
8,CN(N)c1nc2ccccc2nc1C(F)(F)F,"inconclusive: 50.1 µM [inhibitor, partial curve, poor fit]"
9,COc1ccc(S(=O)(=O)N2CCC(NC(=O)c3cccc(F)c3)CC2)cc1,inactive
10,CC(C)SCC(=O)Nc1ncc2c(n1)-c1ccccc1CC2,"inconclusive: 70.8 µM [inhibitor, partial curve, poor fit]"
11,Cc1c(CN2CCCCC2)c(O)n(CCO)c(=O)c1C#N,"inconclusive: 100 µM [inhibitor, single point]"
12,CNc1ccc(Br)cc(C(=O)/C=C/c2cccc(Cl)c2Cl)c1=O,"inconclusive: 28.2 µM [inhibitor, full curve, poor fit]"
13,COc1ccccc1NC(=O)CCc1nc2ccccc2s1,"inconclusive: 31.6 µM [inhibitor, full curve, poor fit]"
14,OCCCNc1nccc(-c2cc(Nc3cccc(Cl)c3)ncn2)n1,"inconclusive: 100 µM [inhibitor, single point]"
15,CSCC(=O)N1CCc2ccc(NC(=O)c3ccccc3Cl)cc2C1,inactive
16,Cc1ccc2nc(-c3ccccc3)cc(C(=O)NNC(=O)c3csc(N4CCOCC4)n3)c2c1,inactive
17,COc1ccc2sc(-c3ccc(S(C)(=O)=O)cc3)c(C#Cc3cncn3C)c2c1,"inconclusive: 89.1 µM [inhibitor, partial curve, poor fit]"
18,COc1ccccc1NC(=O)CSc1nnc(COc2ccc(Cl)cc2)n1Cc1ccco1,"inconclusive: 79.4 µM [inhibitor, single point]"
19,Cc1cc2c(c(=O)o1)C(c1ccc([N+](=O)[O-])o1)C(C#N)=C(N)O2 (stereo not given),"inconclusive: 89.1 µM [inhibitor, partial curve, poor fit]"
20,O=C(C[n+]1ccccc1)N/N=C/c1cc(Br)cc(Br)c1O,inactive
21,COc1cccc2[nH]c3c(N4CCC5(CC4)OCCO5)ncnc3c12,inactive
22,COc1cccc(O[C@@H]2O[C@@H]3COC(C)(C)O[C@H]3[C@H](O)[C@H]2NC(C)=O)c1,"inconclusive: 100 µM [inhibitor, single point]"

row,Structure (SMILES),Potency
1,CCOC(=O)/C(=C/c1ccc(OC(F)F)cc1)C1=Nn2c(nnc2-c2ccc(Cl)cc2)SC1,"inconclusive: 25.1 µM [inhibitor, full curve, poor fit]"
2,Cc1nnc(SCc2ccccc2)nc1-c1ccccc1,inactive
3,CCCC1=Nc2cc(C(=O)NCc3ccccc3)ccc2Sc2ccccc21,inactive
4,COc1ccc(C(C)=O)cc1CSc1nnc(Nc2ccccc2)s1,inactive
5,COc1ccc(OC)c(C2CC(=O)N3CN(c4cccc(Cl)c4)CSC3=C2C#N)c1 (stereo not given),"inconclusive: 17.8 µM [inhibitor, full curve, poor fit]"
6,COc1ccc(NC(=O)Cn2c(=O)c3cccn3c3ccccc32)cc1,"inconclusive: 89.1 µM [inhibitor, single point]"
7,O=C1Nc2cc(C(=O)N3CCN(c4ccc(F)cc4)CC3)ccc2NC1CSCc1cccc(F)c1 (stereo not given),"inconclusive: 25.1 µM [inhibitor, full curve, poor fit]"
8,Cc1cc(C)n(-c2nc(NC(C)C)nc(NC(C)C)n2)n1,inactive
9,Cc1c(Cl)cccc1NC(=O)Nc1ccccc1C(N)=O,"inconclusive: 56.2 µM [inhibitor, partial curve, poor fit]"
10,CC(=O)Nc1ccc2nc3ccccc3nc2c1,"inconclusive: 50.1 µM [inhibitor, partial curve, poor fit]"
11,O=C(O)CN1C(=O)/C(=C\c2cc(Br)ccc2OCc2ccccc2F)SC1=S,"inconclusive: 79.4 µM [inhibitor, partial curve, poor fit]"
12,COC(=O)c1c(NC(=O)CSc2nnc(-c3ccco3)n2C)sc(C)c1C,"inconclusive: 89.1 µM [inhibitor, single point]"
13,Cc1ccc(SCC(=O)NCC2COc3ccccc3O2)cc1 (stereo not given),"inconclusive: 100 µM [inhibitor, single point]"
14,O=C(Nc1ccc2oc(-c3ccncc3)nc2c1)c1ccc2c(c1)OCO2,"inconclusive: 31.6 µM [inhibitor, full curve, poor fit]"
15,Cc1ccc(-c2cc(-c3ccc(C)o3)nc(N)c2C#N)cc1,"inconclusive: 28.2 µM [inhibitor, full curve, poor fit]"
16,O=C1C=C(c2ccc(Cl)c(C(F)(F)F)c2)C[C@@H](c2ccc(Cl)cc2)C1,inactive
17,COc1ccc(Cl)cc1NC(=O)CN1c2ccccc2S(=O)(=O)c2ccccc21,inactive
18,Cc1cc(C)nc(S/C=C/C(=O)c2ccccc2)n1,"inconclusive: 50.1 µM [inhibitor, partial curve, poor fit]"
19,COc1ccc(OC)c(NC(=O)C2CCCN(S(=O)(=O)c3c(C)noc3C)C2)c1 (stereo not given),"inconclusive: 79.4 µM [inhibitor, single point]"
20,CN1CCc2nc(SCC(=O)Nc3ccc(OC(F)(F)F)cc3)c(C#N)c(-c3cccs3)c2C1,"inconclusive: 25.1 µM [inhibitor, full curve, poor fit]"
21,Nc1ccc(Nc2ccccc2)c(S(=O)(=O)O)c1,"inconclusive: 79.4 µM [inhibitor, single point]"
